Data taken from PubChem BioAssay AID686970 (National Center for Advancing Translational Sciences (NCATS), 2013).
Out of some 360,000 compounds screened, about 6,000 (1.7%) were called active. The inconclusive results got no clear call from the source; some entries with a clear call stand among them for comparison. Calls follow the shape of the dose curve; as a rule, active = well fitted cell-killing curve with a large enough effect; inconclusive = small, poorly fitted or top-dose-only effect, or effect the other way; inactive = flat fitted curve, though single readings scatter. No potency is given beside an inconclusive call; the fits are too rough.

Assay: qHTS for induction of synthetic lethality in tumor cells producing 2HG: qHTS for the HT-1080-NT fibrosarcoma cell line;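 also: NT is the 2HG producing partner of a matched IDH1 knockdown line; nearly all actives have a fitted effect of over 55% in size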;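 as to activity, negative = less viability: 0% = DMSO-treated cells and -100% = media-only wells without cells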
Details: HT-1080-NT fibrosarcoma viability, CellTiter-Glo ATP luminescence, 48 h; activity, negative = less viability: at 46.1 µM (top of the series) unless noted
In short: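 A 48-hour cytotoxicity screen used HT-1080-NT cells plated 2 hours before compound delivery. ATP-based CellTiter-Glo luminescence measured viability, normalized to DMSO and no-cell controls.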
Potency is read from the fitted curve at half-maximal effect; tags tell the direction and shape of the fitted curve.

SMILES	activity, negative = less viability	Potency
C[C@H]1CN([C@@H](C)CO)C(=O)CCCn2nncc2CO[C@@H]1CN(C)Cc1cccc(C(=O)O)c1	inactive: 13.6%	
O=C(NCCOc1cccnc1)C1CCC(=O)N(Cc2ccccc2F)C1 (configuration not stated)		inconclusive [rising, single point]
Cc1ccc(N(CC(=O)NC(C)c2ccccc2)S(=O)(=O)c2c(C)noc2C)cc1 (configuration not stated)	inactive: 0.0517%	
CCCCCCN1N=C(C)C(C(=O)c2ccc(Cl)cc2)C1=O (configuration not stated)		inconclusive [cytotoxic, single point]
COc1ccc(/C=N/NC(=O)CSCC(=O)Nc2ccccc2)cc1	inactive: 1.02%	
NNc1nnc2c3cc(F)ccc3n(CCc3ccccc3)c2n1		inconclusive [cytotoxic, partial curve]
COc1cc(OC)cc(C(=O)Nc2cc(-c3cn4cccnc4n3)ccc2C)c1		inconclusive [cytotoxic, single point]
NC(=O)c1ccccc1NC(=S)NC(=O)CCc1ccccc1		active: 3.26 µM
Cn1cc(Br)c(-c2cccc(NC(=O)CC(C)(C)CC(=O)O)c2)n1		inconclusive [rising, single point]
Cc1noc(C)c1COc1cccc(C(=O)Nc2ccccc2)c1	inactive: 3.3%	
CSc1ccc(C(=O)N2CCC(n3nccc3NC(=O)C3CC3)CC2)cc1	inactive: -3.5%	
COCCNC(=O)/C(C#N)=C/c1ccc(OCc2ccccc2)cc1		inconclusive [cytotoxic, single point]
O=C(NNC(=O)C1CC1c1ccccc1)Nc1cccc(Cl)c1 (configuration not stated)		inconclusive [cytotoxic, single point]
C1CCN(c2c3c(nc4nnnn24)CCCC3)CC1	inactive: -1.54%	
Cc1nc(-c2cccc(S(=O)(=O)N3CCCCC3)c2)cs1	inactive: -5.27%	
CCNC(=O)C1CCCN(Cc2ccc(C)c3ccccc23)CC1 (configuration not stated)	inactive: 11.1%	
O=C(CCN1C(=O)/C(=C/c2cccs2)SC1=S)N1CCCCC1		inconclusive [cytotoxic, full curve]
O=c1[nH]cc(N(CCO)CCO)c(=O)[nH]1		inconclusive [rising, single point]
COc1cccc(/C=N/NC(=O)c2cc3c(OC)c(OC)ccc3[nH]2)c1OC		inconclusive [cytotoxic, partial curve]
CCn1ncc(S(=O)(=O)Nc2cc(Cl)ccc2C)c1C	inactive: -0.798%	
CCc1nn(CC(=O)NCCCN(CC)CC)c(=O)c2cc3sc(C)cc3n12	inactive: 20.8%	
Nc1nc(Nc2cccc(Cl)c2)nc(NCc2ccco2)c1[N+](=O)[O-]		inconclusive [cytotoxic, single point]
CC(C)(C)CC(C)(C)n1nnnc1N		inconclusive [rising, single point]
CC(C)(C)NC(=O)CSc1nc2ccc(NC(=O)CSc3nnc(N)s3)cc2s1	inactive: 1.65%	

SMILES	activity, negative = less viability	Potency
CC(C)C(=O)N1CCN(c2nc(-c3ccccc3)c3c(c2C#N)CCCC3)CC1		inconclusive [cytotoxic, single point]
O=C(CN1CCCC1)Nc1cc(C(F)(F)F)ccc1Cl		inconclusive [rising, single point]
Cc1ccc(CN2CCN(/N=C\C(Br)=C\c3ccccc3)CC2)cc1		inconclusive [cytotoxic, single point]
CC1Cc2ccccc2N1C(=O)CSc1nnc2c(n1)[nH]c1ccccc12 (configuration not stated)		inconclusive [cytotoxic, partial curve]
O=C(NCc1cccc(F)c1)c1noc2c1CCCC2		inconclusive [cytotoxic, single point]
COc1ccc(C(=O)/C=C/c2cn(CC(O)CN3CCN(C)CC3)c3ccccc23)cc1OC (configuration not stated)		active: 16.4 µM
Cc1ccc(NCC(=O)N/N=C/c2ccc(C(=O)O)cc2)cc1	inactive: 4.33%	
CC(O)(c1ccccc1)c1nc(-c2cccc(C(F)(F)F)c2)cs1 (configuration not stated)		inconclusive [cytotoxic, single point]
Fc1ccc(N/N=C/c2cccnc2)c(F)c1	inconclusive: -33.2% [cytotoxic]	
COC(=O)C(C(=O)Nc1ccc(OC)cc1)C1CCCCCC1 (configuration not stated)		inconclusive [cytotoxic, single point]
Cc1ccc(Nc2ncnc3c2nnn3Cc2ccccc2)cc1	inactive: -6.97%	
NC(=S)N/N=C1\CC(c2ccc3c(c2)OCCCO3)Oc2ccc(F)cc21 (configuration not stated)		inconclusive [cytotoxic, single point]
CCN1CCN(c2cc(C)c3cc(NC(=S)N4CCCC4)ccc3n2)CC1		inconclusive [cytotoxic, single point]
C=CCNc1nc(N2CCCCC2)c(C#N)c2c1CN(Cc1ccccc1)CC2		inconclusive [cytotoxic, single point]
c1ccc(CCOn2ccnc2)cc1	inactive: 18.5%	
Cc1ccc(NC(=O)N2CCC(c3nc4c(nnn4Cc4cccc(Cl)c4)c(=O)[nH]3)CC2)cc1		inconclusive [cytotoxic, single point]
O=C(Nc1ccc(F)c(Cl)c1)C1Cc2c(-c3ccccc3Oc3ccccc3)ccnc2O1 (configuration not stated)		active: 13 µM
Cc1onc(-c2ccccc2Cl)c1C(=O)O/N=C(\N)c1cccc([N+](=O)[O-])c1		inconclusive [cytotoxic, single point]
O=C1CC(c2cccc([N+](=O)[O-])c2)c2c(ccc3ccccc23)N1 (configuration not stated)		inconclusive [cytotoxic, single point]
CCOC(=O)c1[nH]cnc1N=Nc1c(O)ccc2ccccc12		active: 5.8 µM
CCc1ccc(OCC(=O)NNC(=O)c2cnccn2)c(Br)c1		inconclusive [cytotoxic, full curve]
Cc1ccccc1NCc1ccc([N+](=O)[O-])s1		inconclusive [cytotoxic, full curve, poor fit]
Cc1sc2nc(CN3CCCC3)nc(N3CCN(S(=O)(=O)c4cccs4)CC3)c2c1C		inconclusive [cytotoxic, single point]
CC1CC(C)CN(S(=O)(=O)c2ccc(C(=O)Nc3nnc(-c4cccs4)o3)cc2)C1 (configuration not stated)		active: 14.1 µM

SMILES	activity, negative = less viability	Potency
CCc1ccccc1NS(=O)(=O)c1ccc(OC)c2ncccc12	inactive: -5%	
CCCCCc1cc(=O)oc2c(C(CCN3CCCCC3)c3cc(OC)c(OC)c(OC)c3)c(OC)cc(OC)c12 (configuration not stated)		active: 20.6 µM
CC(Nc1ncnc2ccccc12)c1ccccc1 (configuration not stated)		inconclusive [cytotoxic, full curve]
CCOC(=O)c1c(OCC)[nH]c2c1cc(O)c1ccccc12		inconclusive [cytotoxic, single point]
COc1cccc(/C=N/Nc2c(Cl)cncc2Cl)c1O		inconclusive [cytotoxic, single point]
NCCc1nnc(SCC(=O)Nc2ccc(Br)cc2)o1		inconclusive [cytotoxic, partial curve]
CCc1ccccc1OCc1nnc(N)s1	inconclusive: 7.27%	
O=C1CCCC/C1=N\Nc1ccc(OCc2ccccc2)cc1		inconclusive [cytotoxic, full curve]
CCCS(=O)(=O)Nc1cc(C(F)(F)F)ccc1OCCOC	inactive: -1.21%	
COC(=O)c1ccccc1NC(=O)CN1CCC(C(=O)c2ccc3c(c2)OCCO3)CC1		inconclusive [cytotoxic, single point]
Cc1ccc(NC(=O)c2cc(S(=O)(=O)NCCC3=CCCCC3)ccc2F)cc1F		inconclusive [cytotoxic, single point]
Cc1c(C(c2ccc(C(=O)O)cc2)c2c(C)n(C)n(-c3ccccc3)c2=O)c(=O)n(-c2ccccc2)n1C	inactive: 8.97%	
Cc1cc(C)c(COCc2cc(/C=N/O)c(C)cc2C)cc1/C=N/O		inconclusive [cytotoxic, single point]
COc1ccc(C(C(=O)Nc2ccc3c(c2)OCCO3)n2c(=O)c(-c3ccco3)nc3ccccc32)cc1 (configuration not stated)		inconclusive [cytotoxic, partial curve]
Cc1c(Cl)cccc1NC(=S)NCc1ccco1		inconclusive [cytotoxic, single point]
Cc1cc(Nc2nc3ccccc3nc2Cl)n(-c2ccccc2C)n1		inconclusive [cytotoxic, single point]
COc1cc2c(cc1OC)CN(C(=O)/C=C/c1ccccc1[N+](=O)[O-])CC2		inconclusive [cytotoxic, partial curve]
COc1ccc(NS(=O)(=O)c2ccc(C(=O)N3CCN(Cc4ccccc4)CC3)cc2)cc1	inactive: -11.7%	
CC(C)CNc1ncnc2c1ncn2[C@H]1CN(Cc2ccc(-c3ccccc3)cc2)C[C@@H](CO)O1		active: 18.4 µM
C[C@H]1CN([C@@H](C)CO)C(=O)CCCn2nncc2CO[C@@H]1CN(C)S(=O)(=O)c1ccc(-n2cccn2)cc1	inactive: 5.75%	
CCCSc1nnc(-c2c[nH]c3ccccc23)n1C		inconclusive [rising, partial curve]
COc1ccc(-c2cc3nc(NCCCN(C)C)n(C)c(=O)c3s2)c(C)c1		inconclusive [cytotoxic, single point]
O=C(CCN1CCN(C(c2ccccc2)c2ccccc2)CC1)N/N=C/c1ccc(O)cc1O		inconclusive [cytotoxic, single point]
CC1CCc2c(sc3ncnc(SC(C)C(=O)NCC4CCCO4)c23)C1 (configuration not stated)		inconclusive [cytotoxic, single point]
